Patent US11866720B2, “Transgenic or non-transgenic plants with mutated protoporphyrinogen oxidase having increased tolerance to herbicides” (priority 2013, dated 2024)
“And” between values parts separate entries of the source, which are not always exact repeats. Equal values may be shown once. Further values from the same series stand in other lists.

System: transgenic soybean expressing mutated PPO
Assay: Soybean segregating T1 individuals, greenhouse spray test (injury 0-9)
Format: in vivo, Glycine max
Conditions: 1 week after treatment

Compound	injury (0-9 point scale) (SDS-10642 AmtuPPX2L R128A_F420L, Oxyfluorfen 1200 g ai/ha)	injury (0-9 point scale) (SDS-10652 AmtuPPX2L L397D_F420V, Oxyfluorfen 1200 g ai/ha)	injury (0-9 point scale) (SDS-10787 AmtuPPX2L R128A_F420L, Oxyfluorfen 1200 g ai/ha)	injury (0-9 point scale) (SDS-11034 AmtuPPX2L R128A_F420V, Oxyfluorfen 600 g ai/ha)	injury (0-9 point scale) (SDS-11034 AmtuPPX2L R128A_F420V, Oxyfluorfen 1200 g ai/ha)	injury (0-9 point scale) (wild type, Oxyfluorfen 1200 g ai/ha)	injury (0-9 point scale) (SDS-10642 AmtuPPX2L R128A_F420L, Sulfentrazone 700 g ai/ha)	injury (0-9 point scale) (SDS-10652 AmtuPPX2L L397D_F420V, Sulfentrazone 700 g ai/ha)	injury (0-9 point scale) (SDS-10787 AmtuPPX2L R128A_F420L, Sulfentrazone 700 g ai/ha)	injury (0-9 point scale) (SDS-11034 AmtuPPX2L R128A_F420V, Sulfentrazone 700 g ai/ha)	injury (0-9 point scale) (wild type, Sulfentrazone 700 g ai/ha)
CCOc1cc(Oc2ccc(C(F)(F)F)cc2Cl)ccc1[N+](=O)[O-] [Oxyfluorfen]	3 (5×) and 4 (2×) and 2	5 (3×) and 4 (4×) and 3	6 (2×) and 5 (4×) and 8 and 9	6	5 (3×) and 6 (5×)	9 (6×) and 8 (2×)	–	–	–	–	–
Cc1nn(-c2cc(NS(C)(=O)=O)c(Cl)cc2Cl)c(=O)n1C(F)F [Sulfentrazon, sulfentrazone]	–	–	–	–	–	–	3 (2×) and 1 and 2 (4×) and 0	2 and 3 and 7 (2×) and 4 (3×) and 6	3 and 4 (2×) and 6 (3×) and 5 (2×)	3 (4×) and 2 (2×) and 1 and 4	9
